{"source": "PubChem BioAssay AID1963576", "about": "(National Center for Advancing Translational Sciences (NCATS), 2024)", "note": "Hit rate of the full screen: of about 46,000 compounds, about 60 (0.1%) were called active. Inconclusive results (about 3%) are left out. The call rests on the fitted dose curve; in most records, active means well fitted inhibition curve with a large enough effect; inconclusive means small, poorly fitted or top-dose-only effect; inactive means no such curve, though single readings can be large or run the other way. Some of the results follow.", "data": [{"assay": "Primary qHTS assay for Inhibitors of ovarian cancer metastasis using an organotypic tumor microenvironment (TME) model; further: nearly all actives have a fitted effect of over 65% in size;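 on activity change, negative = inhibition: plate controls were DMSO wells for no effect and tomatine positive control wells for full effect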.", "settings": "SKOV3ip1-GFP adhesion/invasion on 3D omental model, fluorescence; series mostly up to 45.8 µM; activity change, negative = inhibition: at the top concentration", "outline": "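A 3D layer of primary human omental fibroblasts, mesothelial cells, fibronectin and collagen I, grown 48 hr, received SKOV3ip1-GFP cells in serum-free medium plus compounds at 0.36-46 umol/L. After 2 hr RT and 16 hr 37 C, fixed adherent GFP cells were counted; normalized to DMSO and tomatine.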", "values": [{"smiles": "CCOc1cc2[nH]c(=O)n(CCC(=O)N3CCN(c4ccccc4)CC3)c(=O)c2cc1OCC", "activity change, negative = inhibition": "inactive: -6.44%"}, {"smiles": "COC(=O)c1c(NC(=O)CS(=O)(=O)c2ccc(C)cc2)sc2c1CCCCC2", "activity change, negative = inhibition": "inactive: -8.34%"}, {"smiles": "O=C(c1ccc(Cl)cc1)n1nc(-c2ccccc2)nc1NCc1ccco1", "activity change, negative = inhibition": "inactive: -6.29%"}, {"smiles": "CCCn1c(=N)c(C(=O)NC(C)c2ccccc2)cc2c(=O)n3ccccc3nc21", "note": "(configuration not stated)", "activity change, negative = inhibition": "inactive: 8.89%"}, {"smiles": "Cc1ccc2scc(N3CCCC(C)C3)c(=O)c2c1", "note": "(configuration not stated)", "activity change, negative = inhibition": "inactive: 8.48%"}, {"smiles": "Cn1c(=O)n(C)c2cc(CNCc3ccccc3Cl)ccc21", "activity change, negative = inhibition": "inactive: 0.369%"}, {"smiles": "COc1cccc(C(=O)NCc2cn3cccc(C)c3n2)c1", "activity change, negative = inhibition": "inactive: 4.63%"}, {"smiles": "Cc1c(Cl)cccc1-n1ncc(C(=O)NC2CCCC2)c1C1CCN(C(=O)OC(C)(C)C)CC1", "activity change, negative = inhibition": "inactive: 6.89%"}, {"smiles": "Cc1ccc(NC(=O)N2CCN3CCCCC3C2)cc1C", "note": "(configuration not stated)", "activity change, negative = inhibition": "inactive: -3.84%"}, {"smiles": "COc1ccc2c(c1)c1c(c(=O)n(-c3cc(Cl)ccc3C)c(=O)n1Cc1ccc(F)cc1)n2C", "activity change, negative = inhibition": "inactive: 3.68%"}, {"smiles": "CC(C)c1ccc(NC(=O)CSC2=Nc3ccccc3C3=NC(CCC(=O)NCc4cccs4)C(=O)N23)cc1", "note": "(configuration not stated)", "activity change, negative = inhibition": "inactive: -1.35%"}, {"smiles": "CCOc1ccc(S(=O)(=O)Nc2cc3c(C(=O)OCc4ccccc4)c(C)oc3c3ccccc23)cc1", "activity change, negative = inhibition": "inactive: -28%"}, {"smiles": "CCOc1ccc(NC(=O)c2nn(C)c3c2COc2ccccc2-3)cc1", "activity change, negative = inhibition": "inactive: 4.92%"}, {"smiles": "COc1cccc(NC(=O)CSc2nc(=O)[nH]c3c2CCCC3)c1", "activity change, negative = inhibition": "inactive: -1.31%"}, {"smiles": "COc1ccc(-c2[nH]c(-c3ccc(C)cc3)nc2SCC(=O)NCC2CCCO2)cc1", "note": "(configuration not stated)", "activity change, negative = inhibition": "inactive: -9.33%"}, {"smiles": "CC(=O)c1c(C)n(-c2cccc(Cl)c2)c2ccc(OC(=O)c3ccccc3)cc12", "activity change, negative = inhibition": "inactive: -1.01%"}, {"smiles": "Cc1cc(C)c(-c2n[nH]c3c2C(c2ccccc2F)N(CCO)C3=O)c(O)c1", "note": "(configuration not stated)", "activity change, negative = inhibition": "inactive: 1.06%"}, {"smiles": "CCCOC(=O)c1c(-c2ccccc2)c(-c2ccccc2)nn(C)c1=O", "outcome": "inactive"}, {"smiles": "CCSc1ncc(Cl)c(C(=O)Nc2cc(C)ccc2C)n1", "outcome": "inactive"}, {"smiles": "COc1ccccc1C(=O)OCc1cc(=O)n2c(C)csc2n1", "activity change, negative = inhibition": "inactive: 1.59%"}, {"smiles": "Cc1nc2cccnc2n1-c1cccc(C(=O)NCc2cccc(Cl)c2)c1", "activity change, negative = inhibition": "inactive: -23.9%"}, {"smiles": "CCOc1ccc(-c2cc3nc(C4CCN(C(=O)OC(C)(C)C)CC4)c(C(=O)Nc4cccc(C(F)(F)F)c4)cn3n2)cc1", "activity change, negative = inhibition": "inactive: -5.44%"}, {"smiles": "COc1ccc(Br)cc1CNCc1c(C(=O)O)c(C)n(Cc2ccccc2C)c1C", "activity change, negative = inhibition": "inactive: 11.8%"}, {"smiles": "COc1cccc(C(=O)NC2=NC(c3ccccc3F)CC(=O)N2)c1", "note": "(configuration not stated)", "activity change, negative = inhibition": "inactive: -2.2%"}, {"smiles": "COc1cc(Cl)c(NS(=O)(=O)c2cc3[nH]c(=O)c(=O)[nH]c3cc2C)c(OC)c1", "activity change, negative = inhibition": "inactive: 2.26%"}, {"smiles": "Cc1ccc(-n2c(=O)c3c4c(sc3n(CC(=O)C(C)(C)C)c2=O)CCCCC4)cc1C", "outcome": "inactive"}, {"smiles": "COc1ccc(CNC(=O)CCc2c(C)nn(-c3ccc(N4CCCC4)nn3)c2C)cc1", "activity change, negative = inhibition": "inactive: -9.92%"}]}]}
